Measurements published in the supplement of paper PMC4967469.
Lines with a small IC50 respond at low doses; a fit beyond the top or the lowest dose is shown as a bound at that dose. AUC sums up the same curve from the lowest dose to the 256-fold higher top dose; the more sensitive the line, the further below 1. For some of these results: Where the top dose is marked as inferred, it was calculated from the reported fits. For some of these results: Where an entry number is given, a second screen of the drug exists; the two often differ.

Legend:
Experiment in all cases: Viability of human cancer cell lines after 72 h of drug (GDSC screen)
[1] = compound: Cc1c(N)nc([C@H](CC(N)=O)NC[C@H](N)C(N)=O)nc1C(=O)N[C@H](C(=O)N[C@H](C)[C@@H](O)[C@H](C)C(=O)N[C@H](C(=O)NCCc1nc(-c2nc(C(=O)NCCC[S+](C)C)cs2)cs1)[C@@H](C)O)[C@@H](OC1OC(CO)C(O)C(O)C1OC1OC(CO)C(O)C(OC(N)=O)C1O)c1cnc[nH]1 [Bleomycin]
Procedure: (§1)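 Human cancer cell lines in 384-well plates, medium with 10% serum, drug for 72 h over a 256-fold dose range (nine 2-fold or five 4-fold steps up to the top dose). Adherent lines were fixed and stained with the nucleic acid dye Syto60, suspension lines read with resazurin; signal relative to control wells, capped at 0 and 100%. One two-parameter sigmoid per drug and line, fitted in a mixed model over all curves with the slope shared within a line.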

[2] = compound: CCCC(=O)OCc1ccc(OC(=O)/C=C(C)/C=C/C=C(C)/C=C/C2=C(C)CCCC2(C)C)cc1 [VNLG/124]; conditions: top dose 5.12 µM; top dose inferred
Procedure: as §1

[3] = compound: CC/C(=C(\c1ccccc1)c1ccc(OCCN(C)C)cc1)c1ccccc1 [Tamoxifen]; conditions: top dose 5 µM
Procedure: as §1

[4] = compound: Cc1ccc(NC(=O)c2ccc(CN3CCN(C)CC3)cc2)cc1Nc1nc(-c2cccnc2)cs1 [Masitinib]; conditions: top dose 20 µM
Procedure: as §1

[5] = compound: O=C(/C=C/c1ccc(CN(CCO)CCc2c[nH]c3ccccc23)cc1)NO [LAQ824]; conditions: top dose 1.024 µM; top dose inferred
Procedure: as §1

[6] = compound: CN(NC(=O)CC(=O)NN(C)C(=S)c1ccccc1)C(=S)c1ccccc1 [Elesclomol]; conditions: top dose 0.2 µM; top dose inferred
Procedure: as §1

[7] = compound: O=C(Nc1cccc(Nc2ncc(Br)c(NCCc3cnc[nH]3)n2)c1)N1CCCC1 [BX-912]; conditions: top dose 10.24 µM; top dose inferred
Procedure: as §1

[8] = compound: O=S(=O)(O)c1ccc2cc(N=Nc3cc(S(=O)(=O)O)c4cccnc4c3O)ccc2c1 [NSC-87877]; conditions: top dose 16 µM; top dose inferred
Procedure: as §1

[9] = compound: O=C(Nc1ccc(OC(F)(F)F)cc1)c1sccc1NCc1ccnc2ccccc12 [OSI-930]; conditions: top dose 10.24 µM
Procedure: as §1

[10] = top dose 50 µM, screen: GDSC drug entry 1378, top dose inferred
[11] = top dose 64 µM, screen: GDSC drug entry 190

Cell Line	AUC [1, 10]	IC50 [1, 10]	AUC [1, 11]	IC50 [1, 11]	AUC [2]	IC50 [2]	AUC [3]	IC50 [3]	AUC [4]	IC50 [4]	AUC [5]	IC50 [5]	AUC [6]	IC50 [6]	AUC [7]	IC50 [7]	AUC [8]	IC50 [8]	AUC [9]	IC50 [9]
SISO (cervix, adherent)	0.255	0.643 µM	0.206	0.57 µM	0.927	> 5.12 µM	0.985	> 5 µM	0.97	> 20 µM	0.518	71.4 nM	0.468	10.3 nM	0.95	> 10.2 µM	0.988	> 16 µM	0.985	> 10.2 µM
HDLM-2 (Hodgkin lymphoma, suspension)	0.828	30.2 µM	0.69	13.5 µM	0.989	> 5.12 µM	0.985	> 5 µM	0.965	> 20 µM	0.343	23.7 nM	0.949	> 200 nM	0.884	> 10.2 µM	0.973	> 16 µM	0.971	> 10.2 µM
PANC-08-13 (pancreas, adherent)	0.72	15.9 µM	0.651	11.8 µM	0.981	> 5.12 µM	0.972	> 5 µM	0.901	> 20 µM	0.594	125 nM	0.502	12.7 nM	0.956	> 10.2 µM	0.983	> 16 µM	0.968	> 10.2 µM
YKG-1 (glioma, adherent)	0.408	1.74 µM	0.413	2.31 µM	0.926	> 5.12 µM	0.98	> 5 µM	0.88	> 20 µM	0.455	48.1 nM	0.516	13.9 nM	0.913	> 10.2 µM	0.924	> 16 µM	0.922	> 10.2 µM
TGBC11TKB (stomach, adherent)	0.862	34.8 µM	0.492	3.83 µM	0.973	> 5.12 µM	0.979	> 5 µM	0.974	> 20 µM	0.583	105 nM	0.967	> 200 nM	0.99	> 10.2 µM	0.978	> 16 µM	0.967	> 10.2 µM
KARPAS-620 (haematopoietic neoplasm, suspension)	0.99	> 50 µM	0.807	27.4 µM	0.956	> 5.12 µM	0.98	> 5 µM	0.595	2.19 µM	0.283	17.4 nM	0.721	47.5 nM	0.566	0.941 µM	0.991	> 16 µM	0.881	8.09 µM
KLE (endometrium, adherent)	0.859	> 50 µM	0.627	10.9 µM	0.965	> 5.12 µM	0.953	> 5 µM	0.902	> 20 µM	0.507	67.6 nM	0.854	> 200 nM	0.924	> 10.2 µM	0.977	> 16 µM	0.975	> 10.2 µM
HAL-01 (lymphoblastic leukaemia, suspension)	0.509	3.3 µM	0.022	< 0.25 µM	0.957	> 5.12 µM	0.95	> 5 µM	0.828	10.4 µM	0.441	45.1 nM	0.444	8.96 nM	0.914	> 10.2 µM	0.978	> 16 µM	0.95	> 10.2 µM
P12-ICHIKAWA (T-cell lymphoblastic leukaemia, suspension)	0.951	> 50 µM	0.467	3.32 µM	0.958	> 5.12 µM	0.994	> 5 µM	0.878	12.7 µM	0.294	19.7 nM	0.933	> 200 nM	0.204	0.114 µM	0.991	> 16 µM	0.964	> 10.2 µM
LCLC-103H (large cell lung carcinoma, adherent)	0.986	> 50 µM	0.156	0.404 µM	0.982	> 5.12 µM	0.99	> 5 µM	0.893	> 20 µM	0.272	15.5 nM	0.818	99.2 nM	0.874	8.35 µM	0.972	> 16 µM	0.988	> 10.2 µM
SKG-IIIa (cervix, adherent)	0.621	7.52 µM	0.85	> 64 µM	0.979	> 5.12 µM	0.977	> 5 µM	0.976	> 20 µM	0.475	53.4 nM	0.66	40.7 nM	0.976	> 10.2 µM	0.981	> 16 µM	0.968	> 10.2 µM
697 (lymphoblastic leukaemia, suspension)	0.568	4.61 µM	0.337	1.56 µM	0.952	> 5.12 µM	0.983	> 5 µM	0.855	11.2 µM	0.174	8.88 nM	0.36	5.6 nM	0.399	0.36 µM	0.95	> 16 µM	0.921	> 10.2 µM
NCI-H1869 (lung squamous cell carcinoma, adherent)	0.713	13.6 µM	0.898	> 64 µM	0.985	> 5.12 µM	0.971	> 5 µM	0.926	> 20 µM	0.637	161 nM	0.628	29.5 nM	0.966	> 10.2 µM	0.976	> 16 µM	0.966	> 10.2 µM
RPMI-2650 (head and neck, adherent)	0.509	3.31 µM	0.211	0.518 µM	0.976	> 5.12 µM	0.978	> 5 µM	0.925	> 20 µM	0.398	32.9 nM	0.648	33.4 nM	0.92	> 10.2 µM	0.983	> 16 µM	0.981	> 10.2 µM
SW962 (urogenital system, adherent)	0.608	6.65 µM	0.409	2.11 µM	0.963	> 5.12 µM	0.903	> 5 µM	0.977	> 20 µM	0.447	44.3 nM	0.691	49.2 nM	0.721	3.21 µM	0.951	> 16 µM	0.978	> 10.2 µM
NCI-H2444 (non-small cell lung carcinoma, adherent)	0.859	> 50 µM	0.934	> 64 µM	0.988	> 5.12 µM	0.987	> 5 µM	0.978	> 20 µM	0.551	89.6 nM	0.961	> 200 nM	0.982	> 10.2 µM	0.988	> 16 µM	0.969	> 10.2 µM
FU-OV-1 (ovary, adherent)	0.862	> 50 µM	0.764	30.4 µM	0.982	> 5.12 µM	0.968	> 5 µM	0.886	> 20 µM	0.399	31 nM	0.623	30.4 nM	0.89	> 10.2 µM	0.969	> 16 µM	0.962	> 10.2 µM
Detroit562 (head and neck, adherent)	0.562	4.57 µM	0.643	9.78 µM	0.982	> 5.12 µM	0.93	> 5 µM	0.939	> 20 µM	0.522	73.3 nM	0.696	43.3 nM	0.967	> 10.2 µM	0.986	> 16 µM	0.979	> 10.2 µM
MKN45 (stomach, adherent)	0.899	> 50 µM	0.103	< 0.25 µM	0.977	> 5.12 µM	0.978	> 5 µM	0.964	> 20 µM	0.582	114 nM	0.661	39.6 nM	0.919	> 10.2 µM	0.933	> 16 µM	0.975	> 10.2 µM
AN3-CA (endometrium, adherent)	0.827	34.5 µM	0.429	2.51 µM	0.978	> 5.12 µM	0.95	> 5 µM	0.879	> 20 µM	0.399	32.9 nM	0.5	12.5 nM	0.903	> 10.2 µM	0.834	11.9 µM	0.972	> 10.2 µM
NCI-H1693 (lung adenocarcinoma, adherent)	0.706	17.2 µM	0.625	10.9 µM	0.977	> 5.12 µM	0.973	> 5 µM	0.938	> 20 µM	0.533	83 nM	0.477	10.4 nM	0.95	> 10.2 µM	0.975	> 16 µM	0.977	> 10.2 µM
U-698-M (B-cell leukaemia, suspension)	0.965	> 50 µM	0.651	10.5 µM	0.987	> 5.12 µM	0.957	> 5 µM	0.895	> 20 µM	0.567	97.6 nM	0.477	10.8 nM	0.92	> 10.2 µM	0.986	> 16 µM	0.932	> 10.2 µM
KYM-1 (rhabdomyosarcoma, adherent)	0.268	0.767 µM	0.331	1.46 µM	0.99	> 5.12 µM	0.907	> 5 µM	0.918	> 20 µM	0.514	69.6 nM	0.43	8.28 nM	0.985	> 10.2 µM	0.984	> 16 µM	0.977	> 10.2 µM
